Values joined by “and” are separate entries in the source; they are usually repeats but may differ in a detail not shown here. Identical values can stand only once. About 6,500 (4.3%) of roughly 150,000 compounds were called active. Inconclusive means that the source gave no clear call. Such entries were picked first, then a sample of the others. The call rests on the fitted dose curve; in most records, active means well fitted inhibition curve with a large enough effect (not every such curve was filed as active); inconclusive means small, poorly fitted or top-dose-only effect, or another doubt; inactive means no such curve, though single readings can be large or run the other way. No potency is given beside an inconclusive call; the fits are too rough.
These molecules were tested against 15-hydroxyprostaglandin dehydrogenase [NAD(+)] (Homo sapiens) (UniProt P15428) (assay: qHTS Assay for Inhibitors of HPGD (15-Hydroxyprostaglandin Dehydrogenase)). Conditions: purified HPGD, NADH fluorescence kinetic, PGE2 substrate; activity change, negative = inhibition: hits give low values.
How it was run: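 20 nM HPGD preincubated 15 min at room temperature with compound in 50 mM Tris-HCl pH 8, 0.01% Tween 20. Started with 1 mM NAD+ and 30 uM prostaglandin E2; NADH fluorescence (360/450 nm) read 5 times over 30-s intervals, last minus first.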
On the % scale 0 is the no-effect control and ±100 the full control effect; potency means the concentration at half of the fitted maximal effect; tags describe the fitted curve by direction and shape.

UniProt P15428, sequence (P15428 whole entry, looked up): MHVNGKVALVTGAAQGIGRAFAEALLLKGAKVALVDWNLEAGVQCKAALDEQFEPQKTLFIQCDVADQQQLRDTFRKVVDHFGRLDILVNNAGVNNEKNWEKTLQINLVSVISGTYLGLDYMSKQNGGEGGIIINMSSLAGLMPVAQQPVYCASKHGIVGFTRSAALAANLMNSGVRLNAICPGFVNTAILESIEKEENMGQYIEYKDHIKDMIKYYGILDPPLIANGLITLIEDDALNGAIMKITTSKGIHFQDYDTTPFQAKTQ

SMILES | Potency | activity change, negative = inhibition
CCn1c(=O)c(C(=O)Nc2ccsc2C(=O)OC)c(O)c2ccccc21 | inconclusive [inhibitor, partial curve] | –
Cc1cc(C)c(C#N)c(N2CCCC(C(N)=O)C2)n1 (stereo unspecified) | inconclusive [inhibitor, partial curve] | –
CCOC(=O)c1ccc(-c2ccc(/C=N/NC(=O)CN(c3ccccc3Br)S(C)(=O)=O)o2)cc1 | inconclusive [inhibitor, partial curve] | –
CCn1c(C(=O)OC)cc2c1ccn2-c1ccc(F)cc1 | inconclusive [inhibitor, partial curve] | –
O=C(O)C1CCCCC1C(=O)NCc1cn2ccccc2n1 (stereo unspecified) | inconclusive [inhibitor, partial curve] | –
CCCSc1nc(N)nc(-c2cccs2)c1C#N | inconclusive [inhibitor, single point] | –
COc1ccc(C2=Nn3c(nnc3-c3ccccn3)SC2)cc1OC | inconclusive [inhibitor, partial curve] | –
Cc1cccc(C)c1NC(=O)[C@H](C)N | – | inactive: -0.174%
Cc1oc2c(CN3CCCC3)c(O)ccc2c(=O)c1Oc1ccccc1Br | inconclusive [inhibitor, partial curve] | –
COc1ccc(C(F)(F)F)cc1N/C=C\c1nnnn1-c1ccccc1 | inconclusive [inhibitor, partial curve] | –
COc1cc(/C=C(\C#N)c2ccccn2)ccc1OCc1ccccc1 | inconclusive [inhibitor, partial curve] | –
Cc1ccc(NC(=O)C2CCN(C(=O)NC3CCCCC3)CC2)c(C)c1 | – | inactive: -7.5%
Fc1cc(F)c2nc(Nc3nc4c(F)cccc4s3)sc2c1 | inconclusive [inhibitor, partial curve] | –
Fc1ccc(C2C3=C(Nc4ncnn42)c2ccccc2OC3c2ccncc2)cc1 (stereo unspecified) | inconclusive [inhibitor, partial curve] | –
Cc1c(-c2c(C#N)c(N)nc3c2CCCCCC3)cnn1C | inconclusive [inhibitor, partial curve] | –
Cc1ccc(-n2ncc3c(SCc4ccccc4)ncnc32)cc1 | inconclusive [inhibitor, partial curve] | –
CCCCC1=CC2=CC(=O)C(C)(OC(=O)CC)C(=O)C2=CN1CCN1CCOCC1 (stereo unspecified) | – | inactive: -15.7%
O=C(O)c1cc2ccc3ccccc3c2oc1=O | inconclusive [inhibitor, partial curve] | –
COc1ccccc1NC=C1C(=O)OC(C)(C)OC1=O | – | inactive: -15.3%
COc1ccc(-c2cn3cc(C)ccc3n2)cc1Br | inconclusive [inhibitor, partial curve] | –
CC(=O)c1ccc(Nc2ncnc3c2oc2ccccc23)cc1 | inconclusive [inhibitor, partial curve] | –
COc1ccc(CCNC(=O)CC2Nc3cc(C)c(C)cc3NC2=O)cc1OC (stereo unspecified) | inconclusive [inhibitor, partial curve] | –
Nc1ccc(C(=O)Oc2ccccc2)c(O)c1 | – | inactive: -20.4%
CN(C)C(=S)SCC(=O)Nc1ccc(Cl)cc1Cl | inconclusive [inhibitor, single point] | –

SMILES | Potency | activity change, negative = inhibition
Cn1c(=O)c2c(ncn2CC(=O)Nc2cc(Cl)c(Cl)cc2Cl)n(C)c1=O | – | inactive: -8.55%
O=C1CSC(=Nc2ccccc2Cl)N1 | active: 15.8 µM | –
Cn1c(Oc2ccccc2)c(C=O)c2ccccc21 | – | inactive: -12.2%
CCOc1cc(NC(=S)Nc2ccccc2OC)c(OCC)cc1NC(=O)c1ccccc1C | inconclusive [inhibitor, partial curve] | –
CN(C)c1[nH]c(=O)c(C#N)c2c1CCN2Cc1ccccc1 | active: 12.6 µM | –
CCOC(=O)c1cc2cc(OC)ccc2nc1C | inconclusive [inhibitor, partial curve] | –
CCCCC(CC)CNC(=O)C(=O)c1ccccc1NC(C)=O (stereo unspecified) | – | inactive: 0.645%
CC(=O)c1ccccc1OCCn1nnc(-c2ccc(C)cc2)n1 | inconclusive [inhibitor, partial curve] | –
CCOC(=O)c1cc(-c2ccc(Cl)s2)nc2c1c(C)nn2C | inconclusive [inhibitor, partial curve] | –
CCC(OC(=O)c1nsc(Cl)c1Cl)C(=O)NCc1cccs1 (stereo unspecified) | active: 25.1 µM | –
O=c1c2c(-c3ccc([N+](=O)[O-])cc3)csc2nc2n1CCC2 | active: 22.4 µM | –
O=C(Nc1ccc(Cl)cc1)[C@@H]1[C@@H]2C(=O)N(c3ccc(Cl)cc3Cl)C(=O)[C@@H]2[C@H]2C=CC=NN21 | active: 28.2 µM | –
COCCCn1c(N)c(-c2nc3ccccc3n2C)c2nc3ccccc3nc21 | inconclusive [inhibitor, partial curve] | –
CS(=O)(=O)Nc1ccccc1C(=O)NC1CC2CCC1C2 (stereo unspecified) | inconclusive [inhibitor, partial curve] | –
O=C(Nc1ccc2c(c1)OCCO2)C1CCN(C(=O)c2ccc(Cl)cc2)CC1 | – | inactive: -3.26%
Cc1cccc(N2C(=O)SC(SC(=Nc3ccccc3)Nc3ccccc3)C2=O)c1 (stereo unspecified) | active: 14.1 µM | –
Cc1ccccc1-c1ccc(C(=O)Nc2cccc(F)c2)o1 | – | inactive: -13.2%
CN(NS(=O)(=O)c1ccccc1)c1nc2ccccc2nc1C(F)(F)F | – | inactive: -6.73%
O=c1[nH]c(=O)n([C@H]2C[C@H](O)[C@@H](CO)O2)cc1F | – | inactive: -2.49% and inactive: -1.79% and inactive: -14%
Cc1cc(C(=O)CSc2nnnn2-c2ccc(O)cc2)c(C)n1Cc1ccc2c(c1)OCO2 | – | inactive: -4.33%
Cc1c(C(=O)OCC(=O)N2CC(C)OC(C)C2)oc2ccc(Br)cc12 (stereo unspecified) | inconclusive [inhibitor, single point] | –
COc1cccc(-c2nnc3sc(-c4cccs4)nn23)c1 | – | inactive: -24.4%
CC(C)Cn1c(N)c(C(=O)NCc2cccs2)c2nc3ccccc3nc21 | inconclusive [inhibitor, partial curve] | –
COc1ccc(CSc2nc(N3CCOCC3)c3c(c2C#N)CC(C)(C)OC3)cc1 | inconclusive [inhibitor, single point] | –

SMILES | Potency | activity change, negative = inhibition
COc1ccc(Cl)cc1NC(=O)CCCN1C(=O)CCC1=O | inconclusive [inhibitor, single point] | –
COc1ccccc1OCC(=O)Nc1ccc(S(=O)(=O)Nc2nc(C)cc(C)n2)cc1 | inconclusive [inhibitor, partial curve, poor fit] | –
COc1cc(N=c2ssnc2Cl)cc(OC)c1OC | active: 2.24 µM | –
Cc1occc1C(=O)N1CCN(c2ccccc2)CC1 | – | inactive: -4.96%
Cc1cc(C)c2nc(Cl)c(CN(Cc3ccco3)C(=O)Nc3ccccc3C)cc2c1 | inconclusive [inhibitor, partial curve] | –
Cc1cccc(-n2c(C)cc(/C=C3/C(=N)N4C(c5ccccc5)=CSC4=NC3=O)c2C)c1 | – | inactive: -25.3%
CCOC(=O)c1c(-c2ccc(C)cc2)csc1NC(=O)CCN1CC(C)OC(C)C1 (stereo unspecified) | inconclusive [inhibitor, partial curve] | –
O=C(/C=C/c1ccco1)NC(=S)NNC(=O)c1ccco1 | inconclusive [inhibitor, partial curve] | –
Cn1nc(-c2ccccc2F)c2cc(C(=O)Nc3ccc4c(c3)OCCO4)sc21 | inconclusive [inhibitor, partial curve] | –
CC1(C)CC(=O)C2=C(C1)N(Cc1ccco1)C(=O)C2(NC(=O)c1ccc(Cl)cc1Cl)C(F)(F)F (stereo unspecified) | – | inactive: -8.9%
CC(C)(C)NC(=O)COC(=O)c1ccccc1Nc1ccc(SC(F)F)cc1 | inconclusive [inhibitor, partial curve] | –
Cc1oc(-c2ccccc2Cl)nc1CSc1nc2c(c(=O)[nH]1)CCC2 | active: 2.82 µM | –
N[C@@H](CC1=CS(=O)(=O)c2ccc(Cl)cc21)C(=O)O | – | inactive: -8.84%
C=CC(C1=CC(=O)C(OC)=C(OC)C1=O)c1ccccc1 (stereo unspecified) | active: 20 µM | –
CCOc1ccc(N2CCCCn3c2nc2c3c(=O)[nH]c(=O)n2C)cc1 | – | inactive: -5.38%
CCOc1cc2[nH]c(=O)n(CCCCCC(=O)NCc3ccco3)c(=O)c2cc1OCC | inconclusive [inhibitor, full curve] | –
COCCn1c(C)cc(C(=O)CSc2nc3ccccc3c(=O)[nH]2)c1C | active: 15.8 µM | –
COCCN(CCOC)c1nc(C)nc2c1nc(-c1ccccc1)n2CCCN(C)C | inconclusive [inhibitor, partial curve] | –
Cc1ccc(OCCNC(=O)c2ccccc2N)cc1 | inconclusive [inhibitor, partial curve] | –
O=c1oc2c(CN3CCOCC3)c(O)c(Cl)cc2c2c1CCC2 | inconclusive [inhibitor, partial curve] | –
COc1ccccc1Oc1coc2c(CN3CCN(C)CC3)c(O)ccc2c1=O | inconclusive [inhibitor, partial curve] | –
O=C(CCCn1c(=S)[nH]c2ccsc2c1=O)NCc1ccco1 | – | inactive: -19.6%
Cc1cc(C)c2cc(CN(CCO)C(=O)Nc3ccc(Cl)cc3)c(=O)[nH]c2c1 | inconclusive [inhibitor, single point] | –

From PubChem BioAssay AID894 (National Center for Advancing Translational Sciences (NCATS), 2007)
